Reference: the supplement of paper PMC3334620
Whole data set: some 33,000 sequences, median “E-score (-0.5 to 0.5)” near -0.021, cut for the highest 2% near 0.32. This is one part of the list.

Molecular target: T1, Zap1 (UniProt P47043)
T1 sequence: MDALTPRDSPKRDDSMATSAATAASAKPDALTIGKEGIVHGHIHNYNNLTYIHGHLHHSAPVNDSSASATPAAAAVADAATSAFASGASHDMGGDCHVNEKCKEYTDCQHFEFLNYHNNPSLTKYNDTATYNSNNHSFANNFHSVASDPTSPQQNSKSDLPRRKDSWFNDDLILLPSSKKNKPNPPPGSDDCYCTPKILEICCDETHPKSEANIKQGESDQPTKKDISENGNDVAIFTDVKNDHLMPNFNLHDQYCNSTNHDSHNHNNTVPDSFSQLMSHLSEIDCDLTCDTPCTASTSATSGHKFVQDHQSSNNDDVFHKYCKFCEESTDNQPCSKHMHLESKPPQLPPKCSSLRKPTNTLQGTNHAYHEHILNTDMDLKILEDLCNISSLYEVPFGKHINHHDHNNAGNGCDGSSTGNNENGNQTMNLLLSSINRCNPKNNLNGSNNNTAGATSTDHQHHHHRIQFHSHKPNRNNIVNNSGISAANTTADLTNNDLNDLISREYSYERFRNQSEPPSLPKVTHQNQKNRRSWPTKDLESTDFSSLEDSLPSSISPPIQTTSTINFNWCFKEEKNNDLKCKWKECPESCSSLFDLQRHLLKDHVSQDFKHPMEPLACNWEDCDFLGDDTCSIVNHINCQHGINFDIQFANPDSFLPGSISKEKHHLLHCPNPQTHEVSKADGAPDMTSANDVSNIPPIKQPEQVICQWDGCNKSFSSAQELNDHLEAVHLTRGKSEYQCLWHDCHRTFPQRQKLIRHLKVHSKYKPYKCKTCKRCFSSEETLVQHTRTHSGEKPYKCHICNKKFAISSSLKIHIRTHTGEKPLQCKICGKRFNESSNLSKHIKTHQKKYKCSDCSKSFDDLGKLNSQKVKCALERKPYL
Experiment: PBM E-score (8-mer binding enrichment) (E-score (-0.5 to 0.5)); higher = stronger / more preferred TF binding; most listed sequences are background and not binding sites
Settings: protein concentration: 200 nM; construct: GST-full length
In short: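 Universal all-10-mer Agilent arrays, double-stranded by primer extension on fresh or once-stripped slides, were probed with about 100-200 nM GST-tagged yeast transcription factors made by PURExpress. Fluorescent anti-GST detected bound protein, and masliner normalised the scans. E-scores from the Universal PBM Analysis Suite were given to each ungapped eight-base word pooled with its reverse complement.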

Sequence | PBM E-score
CTATCTGC | -0.25
GGGAAATA | -0.122
CCCGCAGC | -0.228
CAACGGCA | -0.0472
GGCAGTTA | -0.0581
GATCGCAA | 0.121
CATGCTTC | -0.0333
CGCGGTCC | -0.0365
AAATGAAC | 0.0973
GTCATTAA | 0.275
GACAGATA | 0.0964
CAGCTACG | -0.188
GGCCAGAA | 0.00754
CGCTTCGA | -0.261
CAGACGAA | 0.0533
CCGAGATA | 0.117
AAACCGCG | 0.207
CGAGCAAA | -0.192
CCTCGGCA | -0.125
ACAACAAA | 0.158
CTCTGGAA | -0.0494
TCCCGGGA | -0.0942
ACTACTTA | -0.0303
AAGCACCG | -0.118
ATAGGGAT | -0.0647

Sequence | PBM E-score
CACTGGAC | -0.173
GCGCCTGA | -0.0916
CGACGGAA | -0.0518
GCGAGGAC | -0.342
GTCACAAC | 0.18
AGTTCATA | 0.17
CTTGCTTC | -0.123
CCCCTAGA | 0.147
AGAAATCA | 0.0647
CCACACAC | 0.0659
AACGCGCG | 0.113
CTCCGGAC | -0.133
GACGGTCA | 0.0797
GGTCTCGA | 0.0376
ACCGAGGC | 0.0469
GGGATACA | 0.00931
GGCAGCGA | -0.251
ATGGAAAT | -0.012
ATTCGATG | 0.0324
ATCGCTCA | -0.0114
CATAGGTA | 0.116
ACAGCCCA | -0.0608
ATTTGAGC | -0.0529
CGATGCAA | -0.181
CCGACCGG | 0.0475

Sequence | PBM E-score
ATGACATA | -0.00363
AGTGTGCA | -0.0496
CTGGCGGC | 0.00103
ACGTTGAT | 0.0438
CAAGACGA | -0.0833
GTAGCGTA | -0.0662
GAGAACCC | 0.188
ATACTTTG | 0.0158
GGTCGTGA | 0.0142
TCAATGGA | -0.0393
CTCTTATA | 0.0902
AATTATCT | 0.0556
AGATGCAG | -0.1
CAGTGCAC | -0.122
AAAAACAC | 0.293
ACCTGACC | 0.138
GACCCCAC | 0.243
AAGGCTGA | 0.0306
AAATTGTG | -0.0758
AAGAACAC | 0.0512
AGCACAAC | 0.131
CTGGTTTC | 0.124
ACCGAACT | 0.159
CAGCGCAG | -0.221
CACGCTGA | -0.0804

Sequence | PBM E-score
AAGACTCG | -0.202
CAAGACCC | 0.146
CCGCGGCG | 0.0337
GACGCCTA | -0.233
CCAGTGAA | -0.147
TCCCCAAA | 0.042
AATACAGC | -0.0738
CTGATCGA | -0.171
CGATTGTC | -0.114
CAAAAGCC | -0.196
GAAGGTAC | 0.178
AGGTCGTG | 0.353
ACTTCATC | -0.216
AGGCCACA | 0.0371
GTGGCCCA | 0.157
AGGTAATA | 0.263
ATCCCTCG | -0.168
ATTCTTCG | -0.0916
GTTTGGTA | 0.291
CCTCACAG | 0.204
CGTGATAA | 0.122
GAGGCCAC | 0.0991
AGTTCACC | 0.0548
CTGCATAA | 0.0747
AAAGCCTT | -0.092

Sequence | PBM E-score
CAATGATA | 0.0803
CTCATACC | 0.0957
GATTGGGA | -0.146
GATGTCGC | -0.221
CGCTAGTA | 0.0755
CTGGTGGC | -0.188
ACTTCTTG | 0.00157
AATCTCAG | -0.183
GCTTCACA | -0.0875
ATTATGAA | 0.14
AGTCGCAT | -0.187
GCTCAAAC | -0.0646
GCGAGCAC | -0.175
GTGTTCGA | -0.0237
CGTTTTCA | 0.12
ATAAAATA | 0.155
CCGCCCCG | 0.341
AAACGTCC | -0.106
ACGATGCG | -0.223
AAGTAGAT | -0.0639
CGCTCACG | -0.0384
AACGTACG | -0.213
ACGTGAAT | -0.0698
ACTGCCTG | -0.197
CGTCTACC | 0.136

Sequence | PBM E-score
GCGGCTAC | 0.162
GTTCCGCA | -0.00016
AGGTGGAC | -0.283
GAACGGTA | 0.121
CCAGTACA | 0.0202
AATTGGCA | -0.224
AGGGGTTC | 0.173
ATCTTGAC | -0.0181
GGTCCAGA | -0.0479
CGTGAATC | 0.00746
AATCAAAA | 0.0827
CCGCGCAC | 0.0105
ACGTAGTC | -0.166
CCCGCCGG | 0.0616
CAATTAAC | 0.143
GAGGCAGA | -0.214
ACGCAGCC | -0.18
AAAAGCCG | 0.0156
AAATTAGT | 0.134
CCAGTGCC | -0.21
ATTTTGCA | -0.0355
GACCGGCC | -0.007
AGCCGTAT | -0.00761
CGGGAAAA | 0.0146
CCTATAAA | -0.13

Sequence | PBM E-score
GCCGGCGA | -0.292
GACAACAA | 0.0759
AATTTTCC | 0.108
GAGTGCAC | -0.136
AGTGAAGA | -0.283
AGAGATAT | -0.153
AGCGGAAG | -0.261
AGCCATGA | -0.0626
AACATTTA | 0.143
GGGAGCCC | -0.138
AAAGAACA | 0.223
CTGTTGTA | 0.095
TAACTTCA | 0.19
CAGATTAG | -0.13
TAGACACA | -0.096
AGTTGTCA | 0.197
TCTATCCA | -0.102
ACTTATCA | -0.124
ATAAGGGG | -0.0173
TAATGCCA | -0.0133
GCCTCAAC | 0.0422
ACTTCCTG | -0.00882
